The values that follow come from the supplement of paper PMC11417369.

± gives the standard deviation of the averaged measurements. The list shows a part of the results.

This assay concerns PfAP2-EXP AP2 domain (GST-tagged). The experiment in a line: gcPBM binding intensity (ln(normalized median fluorescence intensity)); higher = stronger DNA binding. In outline: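 GST-fused DNA-binding domains of P. falciparum, expressed in E. coli, were applied at about 25 μg on average for 1 h to an Agilent 4 × 180k array of primer-extended double-stranded 36-bp intergenic genomic probes and negative controls. Binding intensity is the highest Masliner-normalised natural-log median intensity across replicate spots of either probe orientation, measured with Alexa488 anti-GST antibody and a 488 nm scan.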
Regarding “AGTTTTTACTCTAATGGTACAGTGCAACTAATAAAT [XGTACX_site6950]”, the “gcPBM binding intensity (ln)” value worked out at 8.55 ± 0.099. For the sequence “ATATATTCCATAAAGGTGCTGTTAACGTGTCAACGT [GTGCAC_site9402]”, the “gcPBM binding intensity (ln)” value turned out to be 8.62 ± 0.23. On to “TTTATGTAAAAATATAGTACATATTAAAAGATAAGA [XGTACX_site8134]”, for which the “gcPBM binding intensity (ln)” value worked out at 8.71 ± 0.35. For the sequence “TAAGTATACACATACACACACACACTAAAAAAAAAA [CACACA_site6337]”, the “gcPBM binding intensity (ln)” value was determined as 8.6 ± 0.51. Consider “TATTTTCCCTCCATATGTACTTAATTATAAGCACAT [XGTACX_site4000]”, for which the “gcPBM binding intensity (ln)” value amounted to 8.61 ± 0.33. For “TTATATTCTATTTATTGTACTTAAATATATATATAT [XGTACX_site6400]”, the “gcPBM binding intensity (ln)” value was found to be 9.69 ± 0.16. With “AAAAAAAAAATATACACACACACATACACATAAATA [CACACA_site3808]”, the “gcPBM binding intensity (ln)” value was 8.79 ± 0.53.

For the sequence ATATATATCTTTTGTGTGCACATATATATAATATAT, the “gcPBM binding intensity (ln)” value was 8.97 ± 0.24. Turning to “TATATATCGCATAAAACACACAAAAAAAAAATTAAA [CACACA_site7767]”, the “gcPBM binding intensity (ln)” value was determined as 8.35 ± 0.59.

Consider “AAACGAAAAAAATGGTGTACATTAAAATGAAAATTG [XGTACX_site7040]”, for which the “gcPBM binding intensity (ln)” value is 8.84 ± 0.2. The result for “TCTATCTTTTCCAAACGTACATTTTTTATATAAATT [XGTACX_site5352]” reads 8.84 ± 0.42; that for “ATTTCATTTATAAGGATATCTACTTTTTATTTTAAT [GTGCAC_negctrl_site59]”, 8.39 ± 0.36. As for “TTTTTATTATTTAAATGTACATATAAATATATATAT [XGTACX_site6870]”, the figure is 8.935 ± 0.021; as for “CTTACAGACATATATACACACATGTATATTTTATAT [CACACA_site549]”, 8.71 ± 0.35. Take “AAGAAGAAACGGAAAAGTACAAAGAAGAAATAAGTA [XGTACX_site3680]”: the “gcPBM binding intensity (ln)” value worked out at 9.19 ± 0.73.

On to “GAGGATGCCTATGGCACACATTATAAAACTGTCGCT [CACACA_site4322]”, for which the “gcPBM binding intensity (ln)” value amounted to 8.31 ± 0.4.

In the case of “TTTTCTTTTCTCTTCTTTTTCTCCCATTATTAATCT [XGTACX_negctrl_site406]”, the “gcPBM binding intensity (ln)” value was 8.78 ± 0.58. With “ATGTTTTTAATTTATTGTACATTAATTTGTATTATT [XGTACX_site253]”, the “gcPBM binding intensity (ln)” value stood at 8.8 ± 0.37. As for “ATATATAATATAAGATGTACAATAAAATCTATATAT [XGTACX_site546]”, the figure is 8.61 ± 0.41; as for “ATAACTTTATTTTCCTGTACACACATTTGACATATT [XGTACX_site7192]”, 9.06 ± 0.35; as for “CATAAAATTGTGAAGTGTACATATTTTTAAATATAA [XGTACX_site8986]”, 8.63 ± 0.28. Consider “AGAAATATCTAATTGTGTACTCAAGAAAAAGTTACG [XGTACX_site372]”, for which the “gcPBM binding intensity (ln)” value turned out to be 8.69 ± 0.18. As for “GGTAGTTATTATCTCCGTACTTATAAAGAAAAAAGG [XGTACX_site4674]”, the figure is 8.63 ± 0.41; as for “ATATTTTATATGTTCACACATACATAAACATATTTT [CACACA_site4948]”, 8.59 ± 0.32.

Take “GAATAAAAATTTTAATGTACATATTTTTTATTTATA [XGTACX_site8935]”: the “gcPBM binding intensity (ln)” value turned out to be 8.35 ± 0.26. With “TTTATTTTCATATGAACACACATATAAATATTATAA [CACACA_site7172]”, the “gcPBM binding intensity (ln)” value turned out to be 8.46 ± 0.49. On to “TACAAATATATAAAATGTACATATATATACATATTA [XGTACX_site3029]”, for which the “gcPBM binding intensity (ln)” value came to 8.09 ± 0.21. Turning to “AAAAAATATAAAAAAAGTACACAAAAACTACAAAAA [XGTACX_site2677]”, the “gcPBM binding intensity (ln)” value was found to be 8.65 ± 0.42.

As for “AAAAAGAGGAAAAAGATAAAGAAATTAAAGGAGAGA [CACACA_negctrl_site423]”, the “gcPBM binding intensity (ln)” value was determined as 8.73 ± 0.69. As for “TTTAATCATTTTATTTGTACTCATAAAAAATATAAT [XGTACX_site5537]”, the “gcPBM binding intensity (ln)” value was 8.38 ± 0.36. Regarding “ACAAAATAATTGTTTACACACCCATTTGTAATTTTA [CACACA_site3615]”, the “gcPBM binding intensity (ln)” value was 8.42 ± 0.35. As to “TCTGTAAACATATTCACACACATAAATTCGCATATA [CACACA_site1866]”, the “gcPBM binding intensity (ln)” value is 8.6 ± 0.38. As for “AAAATGAAATATGTTATATATATATATATATATATA [CACACA_negctrl_site1752]”, the “gcPBM binding intensity (ln)” value stood at 9.9 ± 0.4. For the sequence “TGTATGAAAATAAATGCATGCCAAATATATATATAT [TGCATGCA_site132]”, the “gcPBM binding intensity (ln)” value came to 9.95 ± 0.4.

For “GAAAATTTATATTGCACACATAGGGAATAAAAAAAA [CACACA_site2146]”, the “gcPBM binding intensity (ln)” value was found to be 9.01 ± 0.48.

“TATCATTGTTCATGCTTGCACTTTTGTTACTGTTCC [GTGCAC_site9425]”: the “gcPBM binding intensity (ln)” value was found to be 8.86 ± 0.4. Regarding “TAATTTCCTTAAGAATGTACTTACATTTTATTATTT [XGTACX_site5998]”, the “gcPBM binding intensity (ln)” value came out at 8.32 ± 0.38.

Consider “GTTTATGTATTATTATGTACGTATCATAATATATAT [XGTACX_site2385]”, for which the “gcPBM binding intensity (ln)” value is 8.86 ± 0.27. Regarding “TAATATGAAATGTGTACACACGCACCCACAAAAAAA [CACACA_site8949]”, the “gcPBM binding intensity (ln)” value turned out to be 9.1 ± 0.21.

Take “ATGGACAAGTTAAACGCACACAAATATATACAGACA [CACACA_site1652]”: the “gcPBM binding intensity (ln)” value was found to be 9.15 ± 0.73.

Consider “AATGTATTAAAATTACGTACATATGCACATTTTATA [XGTACX_site5046]”, for which the “gcPBM binding intensity (ln)” value is 8.72 ± 0.085. Take “TACTCTTTCCAGAAGTGTACATAGAAATAATTACAT [XGTACX_site2668]”: the “gcPBM binding intensity (ln)” value was 8.39 ± 0.71. Consider “TTTTTTATTTTGTGCACACACATAAAAATATAAATA [CACACA_site6497]”, for which the “gcPBM binding intensity (ln)” value came to 8.76 ± 0.099. For the sequence “TATAAATACATACATACACACATATATATATATATT [CACACA_site6116]”, the “gcPBM binding intensity (ln)” value turned out to be 8.46 ± 0.35. As for “TCCTAAAAAAAAAAAAAAAATGAAAAAGGAAAAAAA [CACACA_negctrl_site1646]”, the “gcPBM binding intensity (ln)” value came out at 8.26 ± 0.56.
